Results from paper PMC4790291, “Short, Synthetic Cationic Peptides Have Antibacterial Activity against Mycobacterium smegmatis by Forming Pores in Membrane and Synergizing with Antibiotics” (Antibiotics, 2015).
No end group written: not given here.

Test system: M. smegmatis
Conditions: MB7H9 broth with 10% OADC, 48 h, 37 °C

For KRAKKFFKKLK-NH2 [ATRA-1A], the MIC was 22.01 µM.
